Sequences and labels used below:
B1: CPEB3 Ribozyme (parent)
chain: UAACAGGGGGCCACAGCAGAAGCGUUCACGUCGCAGCCCCUGUCAGAUUCUGGUGAAUCUGCGAAUUCUGCUGUAUAUCUC

Consider 167 variants from the RNAGym collection of RNA variant scans (doi:10.1093/nar/gkz1192).

Read counts are not given, so values of variants with three or more changes are uncertain.

The variants in this data set derive from B1. In words: self-cleavage, relative activity (ratio to wild type); higher = more cleavage; in vitro, sequencing. The procedure, abridged:
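Relative activity was defined as the cleaved/total read fraction for a variant divided by the same fraction for the unmutated ribozyme. CPEB3 self-cleaving ribozyme libraries were made by rounds of error-prone PCR, barcoded, and transcribed in vitro with T7 RNA polymerase for 5 hours at 37°C, and cleavage ran through transcription plus a 15 min DNase I step before EDTA. Illumina sequencing of template-switched reverse transcripts gave the reads, and DNA sequencing mapped the barcodes. Averages come from three batches, using variants with at least 5 reads.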
With A15G U54A G55C U74C, the self-cleavage was found to be 0.44. Regarding A15G U60C C62G U67A, the self-cleavage was 0.15. For the variant A15G U43C C81A, the self-cleavage was 0.8. Turning to A15U G30A U41C U49C U78C, the self-cleavage worked out at 0.06. Regarding A15U A47U A56G A77G, the self-cleavage amounted to 0.18. Regarding A15G U51C A56G U76C, the self-cleavage was 0.47. For A15U A21G U26G A28G U31G, the self-cleavage came to 0.07. For A15U G16A A20G U76C, the self-cleavage was determined as 0.25. On to A15G U43C A65U, for which the self-cleavage came to 0.1. In the case of A15U A64G A75G it was 0.26; in that of A15U A21G U25C U51A U54C, 0.31; in that of A15G U41C U48C A65G U67C, 0.1.

Consider A15U A21G U26A U72A, for which the self-cleavage stood at 0.25. With A15U A20U A64U, the self-cleavage was determined as 0.12. In the case of A15G U51C U67C U80A it was 0.33; in that of A15G U58C U78C, 0.41; in that of A15U G30A U60A U76A, 0.09.

Take A15U A35U U41A: the self-cleavage stood at 0.21.

For A15G U49C A56G, the self-cleavage was determined as 1. In the case of A15U A28C U31C A57G A64G it was 0.09; in that of A15U G24A U31C U41C, 0.16; in that of A15G U49C A56U C62U U72C C79U, 0.03. For the variant A15U G19A U41C, the self-cleavage amounted to 0.12. In the case of A15U A21G U41C U51G U76A U80C it was 0.34; in that of A15U A45C G53C A75U A77U, 0.15. In the case of A15G U41C U43C A47U it was 0.07. In the case of A15U A45G A57G U58C it was 0.16. On to A15U A18U C62U, for which the self-cleavage is 0.08. In the case of A15U C38A U43C it was 0.31; in that of A15U A77G U78C, 1.1; in that of A15G U54A U67A G70A, 0.26. In the case of A15G U49C U51A A56G U72C it was 1.21; in that of A15U C59A G70U, 0.13; in that of A15U A20U U49C C81A, 0.1.

In the case of A15U A35C U41A, the self-cleavage is 0.28. With A15U C44G A56U, the self-cleavage amounted to 0.11. Consider A15U A20G U26C G33A U43C U69G, for which the self-cleavage is 0.07. In the case of A15U G46U U54A it was 0.22. In the case of A15U A18U C27U U60A A64G it was 0.08. In the case of A15U C29A A45U G61C A64G U74C it was 0.07; in that of A15G U41C A56U U60C, 0.07; in that of A15G U58C U67C, 0.22.

A15G U51C U54C U60C: the self-cleavage was determined as 0.27. In the case of A15U A28G A45U U66C U67C U80A it was 0.28; in that of A15U G52U A57G U72A A75U, 1.14; in that of A15G U58C U72A, 0.18. Turning to A15U A28C U31C A64G, the self-cleavage came to 0.22. As for A15U A18G A28G U31C U60A U69C, the self-cleavage turned out to be 0.05.

A15U A20U U41A: the self-cleavage worked out at 0.12. In the case of A15U A45U G63U C71A it was 0.08; in that of A15U A18U A35G U41C U43C A64G, 0; in that of A15U A28G A35C A45C A47G, 0.08. A15G U54A U67C U74C U80C: the self-cleavage worked out at 0.13.

In the case of A15U G52U U72A, the self-cleavage was 1.07. As for A15U G16U A28G U51C U80C, the self-cleavage was 0.1. In the case of A15U A20G A21U G24U A45G G53A it was 0.08; in that of A15U A18U A20G U43A A47U U78C, 0.03. As to A15U A20G A21G A35G A64U, the self-cleavage was determined as 0.05. In the case of A15U A20G U60C it was 0.23; in that of A15G U48C U72A A77U, 0.25. On to A15G U48C C62A, for which the self-cleavage turned out to be 0.25. Regarding A15U A18G A28G A35U U80C, the self-cleavage was 0.08. In the case of A15U C17U A21G U31C it was 0.55. In the case of A15U A28G U69C it was 0.14; in that of A15U C40U A47G U67C, 0.05.

A15G U41C U43A U67C U72A A77G: the self-cleavage is 0.14. Turning to A15U A18G U49A A65G A77G, the self-cleavage worked out at 0.07.

Regarding A15G U41C C71U, the self-cleavage was 0.29. A15U G55A A57G U69A: the self-cleavage turned out to be 0.27. In the case of A15G U54A U67C it was 0.23; in that of A15U A21G C37U U54G A57G, 0.05.

Regarding A15U A20G C39A A75U, the self-cleavage turned out to be 0.08.

A15U A18G A20G A47G U72C: the self-cleavage came out at 0.08. In the case of A15G U51A U80C it was 1.19; in that of A15U A21G U26C A35G C62U A64U U67C, 0.08; in that of A15U A20U U54C, 0.17. Turning to A15U A20G G46U U48A U60C, the self-cleavage is 0.22. In the case of A15U G33U U51A A56G G63C U74A it was 0.08; in that of A15U G22U G33U U74C, 0.17; in that of A15G U43A G55C, 0.88. Regarding A15G U41C U67C U69C, the self-cleavage turned out to be 0.4. As to A15U G24A U51A A56G, the self-cleavage was found to be 0.08.

Consider A15U A18U A21G C23A A28G, for which the self-cleavage was found to be 0.2.

As to A15U A35G A45G U51A C68G U69C, the self-cleavage was 0.91.

In the case of A15G U41C A47G A75G, the self-cleavage was 0.87. In the case of A15U A18U A20G U41C A56G it was 0.37. In the case of A15U G42A G61C U66C it was 0.12; in that of A15U C17A A35G U41A G42A U69A U76C, 0.05; in that of A15G U43C U51C C62A C81A, 0.09. In the case of A15G U41C U67G it was 0.26; in that of A15U C23G U48C U51A, 0.19; in that of A15G U60C A77G, 0.2. For the variant A15U G52C U54A, the self-cleavage is 0.32. In the case of A15U A47G U48C G55A it was 0.11; in that of A15U A18G A20G A64G, 0.12. For the variant A15U C17U C34U U51A A77G, the self-cleavage was found to be 0.01. In the case of A15U A64U U78C, the self-cleavage was found to be 0.25.

On to A15U A18G U54C, for which the self-cleavage turned out to be 0.2. In the case of A15U A64U U67C U69C it was 0.15; in that of A15U A21G U41C C50G A57C U60C A77U, 0.11; in that of A15G U49C A64U, 0.1. With A15U A18G A20U U25C C27A G73A, the self-cleavage turned out to be 0.35. In the case of A15U G16C C29U U58C U72A it was 0.16; in that of A15U A35U A57G U74A, 0.7. For the variant A15G U51C A75G, the self-cleavage worked out at 0.67. As for A15U A20G A45G U48C, the self-cleavage came to 0.09. Turning to A15U A18G A45U G53U U66C U80C, the self-cleavage was 0.12.

Take A15G U48C U60A: the self-cleavage was 0.19. Take A15U A45G U60C: the self-cleavage came to 0.45. In the case of A15U G55U U60C it was 0.14. In the case of A15U A20G A28U A47G U49C U72C it was 0.06; in that of A15U A65U U72C U78C, 0.43; in that of A15U G33A U43C A45G, 0.23.

A15U G42A U54A U69C: the self-cleavage is 0.2. Turning to A15G U43C G55U, the self-cleavage came out at 0.21.

For A15G U66A U72C U78C, the self-cleavage was 0.53.

A15U A21U U31A U49C U78C: the self-cleavage was found to be 0.15. In the case of A15G U66A U67C it was 0.26; in that of A15G U54C C62U, 0.17; in that of A15U A18U A20G U31C G52C U66G U69C, 0.1. In the case of A15U C23A U67C it was 0.12. With A15U A18U U25C U51G U54C, the self-cleavage stood at 0.04. In the case of A15U G61A A65G U72A, the self-cleavage worked out at 0.13. A15G U60C U74C: the self-cleavage worked out at 0.47. In the case of A15G U43A A47U A65G it was 0.19; in that of A15U A28U A47U, 0.21.

With A15U A35G U41C, the self-cleavage was 1.26. In the case of A15U A18G C27A A28G C62U U74G U80C it was 0. In the case of A15G U43C U69C it was 0.32. In the case of A15G U43C U78A it was 0.62; in that of A15G U41C U49C U72A, 0.19; in that of A15U A20G U43C A57G G73U, 0.18. With A15U A47G U74C C79U, the self-cleavage was found to be 0.78. In the case of A15U C38A A56C C59A U69A U78C it was 0.1; in that of A15U A18G U43A U67C, 0.14; in that of A15U C38G A64G U78C U80C, 0.02. In the case of A15G U43A U48C U49A U69C U76C it was 0.35; in that of A15U A18U U43A U48C U51A A64U, 0.07.

Regarding A15U A18G U72C, the self-cleavage is 0.35. Turning to A15U A18C G30U A65G, the self-cleavage came to 0.11.

As to A15U A35U U54C, the self-cleavage worked out at 0.25.

Consider A15U A20U U31C, for which the self-cleavage amounted to 0.05. For the variant A15U A18U C38U C71A U74A A75U, the self-cleavage was found to be 0.07. In the case of A15G U51C U58C A75U it was 0.43; in that of A15U G16A A35G, 0.38. In the case of A15U C27A A35C U41A C79A it was 0.31. Take A15G U76A C81G: the self-cleavage turned out to be 0.6.

With A15U A18G A77U, the self-cleavage was 0.52.

Regarding A15U A28U A65G, the self-cleavage stood at 0.16.

Take A15U A20G C23A: the self-cleavage amounted to 0.13. Consider A15U A45C A56G, for which the self-cleavage is 0.53. Turning to A15U A18G U51C, the self-cleavage amounted to 0.14. Regarding A15U A20G A28U, the self-cleavage came out at 0.23. In the case of A15G U41A U49C U78A, the self-cleavage amounted to 0.04. For A15U A56U U67A, the self-cleavage came out at 0.15. As to A15U A21G A56G U67C C71U U72C U78A, the self-cleavage worked out at 0.12. With A15G U43C U72A U76A, the self-cleavage came out at 0.2. Regarding A15U A28G U80C, the self-cleavage worked out at 0.26. For the variant A15U A20G A35U A57G, the self-cleavage stood at 0.09.

On to A15U C23G U25C U80C, for which the self-cleavage worked out at 0.08. In the case of A15U A21G U54C A57G it was 0.15; in that of A15U A21U U26C, 0.12. On to A15G U43C U51A, for which the self-cleavage is 0.32. In the case of A15U A20G A35U U69A U72A U74A U80C it was 0.03; in that of A15U A45U A56G, 0.1. In the case of A15U A18G U25C U60C A65G U74C U78C it was 0.05; in that of A15U G42A U51C U58G, 0.16.
